Over roughly 33,000 sequences, “E-score (-0.5 to 0.5)” has its median near -0.053; the highest 2% begin near 0.37. The list shows a part of the results.
target: Hap1 (UniProt P0CE41); test: PBM E-score (8-mer binding enrichment) (E-score (-0.5 to 0.5)); higher = stronger / more preferred TF binding; most listed sequences are background and not binding sites; details: protein concentration: 200 nM; construct: GST-DNA-binding domain
Summary of the method: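 Full-length yeast transcription factors or their DNA-binding domains, GST-tagged and expressed with PURExpress, were applied at about 100-200 nM to universal all-10-mer Agilent arrays. These arrays had been made double-stranded by primer extension on fresh or once-stripped slides. Detection used fluorescent anti-GST, normalisation used masliner, and E-scores for ungapped eight-base words pooled with reverse complements came from the Universal PBM Analysis Suite.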

Chain of UniProt P0CE41 (P0CE41 whole entry, the tested form may be a part): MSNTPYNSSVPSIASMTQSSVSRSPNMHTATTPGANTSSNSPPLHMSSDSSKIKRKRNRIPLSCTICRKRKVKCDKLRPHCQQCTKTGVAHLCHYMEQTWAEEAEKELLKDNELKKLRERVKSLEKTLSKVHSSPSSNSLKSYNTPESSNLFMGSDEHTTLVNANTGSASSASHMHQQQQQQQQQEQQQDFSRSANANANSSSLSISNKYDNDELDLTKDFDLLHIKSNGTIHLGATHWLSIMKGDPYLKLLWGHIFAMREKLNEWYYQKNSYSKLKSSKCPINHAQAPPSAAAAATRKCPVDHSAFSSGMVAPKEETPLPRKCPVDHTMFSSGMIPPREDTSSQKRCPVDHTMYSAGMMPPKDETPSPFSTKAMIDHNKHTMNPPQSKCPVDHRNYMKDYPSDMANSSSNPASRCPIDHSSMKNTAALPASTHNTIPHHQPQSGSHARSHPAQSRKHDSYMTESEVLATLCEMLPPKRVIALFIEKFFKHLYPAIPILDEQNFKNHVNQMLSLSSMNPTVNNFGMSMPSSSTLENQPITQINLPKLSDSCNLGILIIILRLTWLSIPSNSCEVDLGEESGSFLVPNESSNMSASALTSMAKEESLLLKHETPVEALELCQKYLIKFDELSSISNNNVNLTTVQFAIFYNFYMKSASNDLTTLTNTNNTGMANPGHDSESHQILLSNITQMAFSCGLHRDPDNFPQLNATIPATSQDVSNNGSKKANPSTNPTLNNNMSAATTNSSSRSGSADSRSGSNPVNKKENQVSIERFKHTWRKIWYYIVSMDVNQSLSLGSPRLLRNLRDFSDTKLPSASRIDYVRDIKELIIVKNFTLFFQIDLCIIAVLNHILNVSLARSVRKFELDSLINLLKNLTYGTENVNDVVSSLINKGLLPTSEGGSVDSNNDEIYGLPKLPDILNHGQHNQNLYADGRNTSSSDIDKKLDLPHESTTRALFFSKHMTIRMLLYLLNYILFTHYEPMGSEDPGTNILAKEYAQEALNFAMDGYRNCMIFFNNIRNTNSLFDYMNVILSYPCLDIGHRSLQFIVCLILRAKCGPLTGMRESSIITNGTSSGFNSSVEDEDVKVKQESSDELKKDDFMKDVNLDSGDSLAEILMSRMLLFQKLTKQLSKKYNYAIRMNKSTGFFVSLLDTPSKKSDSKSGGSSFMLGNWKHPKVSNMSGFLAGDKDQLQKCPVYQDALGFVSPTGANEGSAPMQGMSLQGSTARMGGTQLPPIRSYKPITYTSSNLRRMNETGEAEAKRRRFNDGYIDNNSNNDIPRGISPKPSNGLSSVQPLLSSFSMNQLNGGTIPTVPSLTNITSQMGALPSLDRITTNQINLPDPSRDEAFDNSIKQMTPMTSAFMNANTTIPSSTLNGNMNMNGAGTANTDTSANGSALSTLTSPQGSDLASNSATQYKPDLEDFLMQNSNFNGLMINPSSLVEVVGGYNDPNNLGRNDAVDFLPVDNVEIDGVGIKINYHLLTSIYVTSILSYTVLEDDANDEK

Row | Sequence | PBM E-score
1 | CAATGACC | -0.0236
2 | GCGTGATA | -0.0728
3 | AAAGTGCC | -0.0278
4 | GCTATTGA | -0.00882
5 | CATTGTTC | 0.0428
6 | AATAGCCG | 0.287
7 | ACTTCATA | -0.129
8 | ACAGTGCA | -0.0406
9 | CACGGATA | 0.298
10 | GTTGCTTA | -0.129
11 | AACTTTGC | 0.0892
12 | CGAGTTTA | 0.0759
13 | AACATCCG | 0.361
14 | GCGTGTTA | -0.325
15 | CCACTTTA | -0.00297
16 | CCAAATTA | -0.0906
17 | AAACCGAA | 0.26
18 | CCCTAACG | 0.0906
19 | CCTACACA | -0.135
20 | ACCCATCG | 0.0009
21 | TCAGCTGA | -0.295
22 | ATGAGCAG | -0.214
23 | ACTTTGCG | 0.00819
24 | ACCATCCG | 0.186
25 | ATGCCGGG | 0.217

Row | Sequence | PBM E-score
26 | ACGGTAGA | 0.0522
27 | AGACAACG | 0.0357
28 | CGGATGAG | 0.283
29 | AATTATAC | 0.196
30 | AAAAGAGA | -0.275
31 | AATCCACT | -0.124
32 | GCCTCGCA | -0.0625
33 | CATGTAAG | -0.087
34 | CTAAGGCC | 0.0357
35 | ACGTGTCT | -0.28
36 | CCGAGGAA | 0.297
37 | AGGATTGG | -0.0993
38 | CCCAACCG | 0.0888
39 | CACAAGTA | -0.147
40 | AACCGCTC | 0.0164
41 | AGAGATCG | -0.0743
42 | AGAAGCAA | -0.0121
43 | ACCATCGC | 0.0361
44 | ACTTTTGA | -0.129
45 | ACAATACG | -0.0169
46 | CGACTTCA | 0.0753
47 | ACACACTG | -0.134
48 | ACTGCAAG | -0.331
49 | CTGCCAGC | -0.201
50 | CCAGAGTA | -0.071

Row | Sequence | PBM E-score
51 | CACTTATA | 0.0264
52 | TCTTAGAA | 0.0487
53 | GGAGAGTA | 0.204
54 | GTGTAAAA | -0.0823
55 | CTCCTATC | 0.0794
56 | ATGCGGGA | 0.184
57 | ATTTTAAA | -0.0433
58 | AAGTAGGT | 0.00362
59 | GGTATTGA | 0.145
60 | GCCTTTAC | -0.0548
61 | AATACACT | -0.282
62 | GGTCTATA | -0.109
63 | AGTGCTTA | -0.092
64 | CTTGCCAC | -0.23
65 | GTTGGGCA | -0.082
66 | AGTGGGCC | -0.177
67 | ACAAATAG | -0.0365
68 | CACCCCAA | -0.0996
69 | CCCGTTTA | 0.124
70 | AAATCGTT | -0.225
71 | CCCTGCCA | -0.102
72 | CCAGGCAG | -0.0986
73 | CAGTCAGA | -0.142
74 | CCGGGGGC | 0.284
75 | ACAGAGCT | -0.283

Row | Sequence | PBM E-score
76 | CCGTATAA | 0.218
77 | ACGTTTTA | -0.17
78 | GACTATAC | 0.0197
79 | TACCTTAA | -0.0145
80 | ATCGCCTA | 0.0537
81 | GGGTACCA | -0.265
82 | ACAGAGTA | -0.254
83 | AATAAGGC | -0.111
84 | GAGAAATA | 0.138
85 | ATCCAGAA | -0.131
86 | ATTAAGAA | 0.127
87 | CGGTCGAA | 0.359
88 | GCATTAGC | 0.137
89 | GGACCTCC | 0.0912
90 | ATTCTCCC | 0.0268
91 | CAGTCTGA | -0.28
92 | ATGTTCTG | 0.0378
93 | CCATTCCG | 0.169
94 | TCAAACAA | -0.0623
95 | CTTTGAAC | -0.108
96 | AAGTCAAG | -0.138
97 | CGGATTGC | 0.32
98 | CACTTCAC | -0.146
99 | AGCGCAAC | -0.00913
100 | TGGCACCA | -0.231

Row | Sequence | PBM E-score
101 | CTTATCGC | 0.339
102 | GACCGCAC | 0.073
103 | ACGGTTCC | 0.089
104 | GCAGTCCA | -0.216
105 | ATTGTGGG | -0.0625
106 | AGCGCGAT | 0.126
107 | GCTCCGAC | 0.212
108 | ATCTGGGC | -0.0351
109 | ATTCTGCA | -0.0835
110 | AGACGTTC | -0.0931
111 | ATGCGCCA | -0.093
112 | ACCTAAAG | -0.145
113 | GTCAAGAC | -0.186
114 | CCAAACCG | 0.192
115 | ACGGAACT | 0.326
116 | AGAGATCA | -0.339
117 | CTGTAATC | -0.0658
118 | ATCGAAAT | -0.0185
119 | CAAGTTCG | 0.00671
120 | ATCGACTA | -0.127
121 | TATCAGCA | 0.0209
122 | CAAGATGA | -0.17
123 | TAACGGGA | 0.252
124 | ACCCAAGG | -0.0848
125 | CAAGATAA | -0.0149

Row | Sequence | PBM E-score
126 | ATATGTAA | -0.205
127 | ATAATGGG | 0.109
128 | CGGACGAC | 0.371
129 | ACTCCGTA | 0.244
130 | AGACCAGC | -0.195
131 | AGGGACCC | -0.14
132 | GAGCTACA | -0.0421
133 | CATATATA | 0.0604
134 | CCTGAGAC | -0.114
135 | ACGATCGG | 0.258
136 | CGCCGTTC | 0.163
137 | TCCTTTCA | -0.0699
138 | AGTAAAGC | -0.00459
139 | AACCGCCG | 0.326
140 | AACAGGAC | -0.144
141 | AGACAATG | 0.0262
142 | GTGCAATA | -0.179
143 | AAATGCGC | 0.168
144 | GACCCATA | 0.118
145 | GATAATGA | -0.0504
146 | AACCGTTA | 0.0873
147 | AGGTGTCC | -0.00488
148 | AAGAAAGT | 0.0731
149 | GGTCATCA | -0.136
150 | ACTCACGC | -0.182

Row | Sequence | PBM E-score
151 | CATCGTAA | 0.0182
152 | ACTCTATA | 0.00566
153 | CAACCAAA | -0.0496
154 | AGGGAGAA | -0.0602
155 | AACTCTAC | -0.212
156 | ACAAGTAG | -0.136
157 | CCTCTTAA | -0.0575
158 | CATTGCTA | -0.0797
159 | CCACTACA | -0.207
160 | AGTAAGCC | -0.00454
161 | ATTTCGCA | 0.201
162 | AAGGTCTG | -0.122
163 | CCAATTCG | -0.0334
164 | AGATAAGC | -0.0608
165 | CGTAAGTA | 0.211
166 | CCCAAAGG | -0.222
167 | CTCACATC | -0.163
168 | AAGACGCC | -0.0181
169 | CTAATATA | -0.0706
170 | AGGCCAGG | 0.0462
171 | ATCAAAAG | -0.046
172 | GGCCTACC | 0.0874

— the supplement of paper PMC3334620
